{"source": "patent US10519504B2", "about": "“Methods for treatment of oncological disorders using epimetabolic shifters, multidimensional intracellular molecules, or environmental influencers” (Berg LLC, priority 2009, dated 2019)", "type_in_all_cases": "cell-based", "key": {"SK-MEL-28 cells [1]": {"tested_on": "SK-MEL-28 cells", "assay": "Real-time PCR Apoptosis Array", "method": "The formulation of the Q10 was as follows. […] The resulting solution was warmed in a 65° C. water bath and vortexed at high speed. […] For the control vehicle, 9.5 mL of media was added to 500 μL of isopropanol. The control stock was further diluted (2 mL of stock) with 8 mL of media.\nRNA was quantified by measuring Optical Density at 260 nm.\n(§1) (SABiosciences, Frederick, Md.)."}, "SK-MEL-28 cells [2]": {"tested_on": "SK-MEL-28 cells", "assay": "Real-time PCR Diabetes Array", "source_text": "as §1"}, "SK-MEL-28 cells [3]": {"tested_on": "SK-MEL-28 cells", "assay": "Real-time PCR Oxidative Stress and Antioxidant Defense Array", "method": "Experimental details: […] (SABiosciences, Frederick, Md.). […] Further experiments were carried out using SKMEL-28 cells. […] The PCR array (SABiosciences) is a set of optimized real-time PCR primer assays on 96-well plates for pathway or disease focused genes as well as appropriate RNA quality controls. The PCR array performs gene expression analysis with real-time PCR sensitivity and the multi-gene profiling capability of a microarray."}, "SK-MEL-28 cells [4]": {"tested_on": "SK-MEL-28 cells", "assay": "Antibody microarray (Panorama XP725)", "details": "SKMEL-28; Q10 24 hr"}, "[5]": {"details": "SK-MEL-28, 100 μM Q10, at 48 hours"}, "[6]": {"details": "SK-MEL-28, 100 μM Q10, at 48 hours then down regulated"}}, "data": [{"smiles": "COC1=C(OC)C(=O)C(C/C=C(\\C)CC/C=C(\\C)CC/C=C(\\C)CC/C=C(\\C)CC/C=C(\\C)CC/C=C(\\C)CC/C=C(\\C)CC/C=C(\\C)CC/C=C(\\C)CCC=C(C)C)=C(C)C1=O", "note": "[Q10, Coenzyme Q10]", "values": [{"measurement": "tumor protein p73 mRNA", "setting": "SK-MEL-28 cells [1]", "value": "strong down regulation"}, {"measurement": "Regulation", "setting": "SK-MEL-28 cells [1]; SK-MEL-28, 100 μM Q10, after 48 hours (then), gene named above", "value": "down regulated"}, {"measurement": "ADRB3 Regulation", "setting": "SK-MEL-28 cells [2]; [5]", "value": "Down Regulated"}, {"measurement": "CEACAM1 Regulation", "setting": "SK-MEL-28 cells [2]; [5]", "value": "Down Regulated"}, {"measurement": "CEBPA Regulation", "setting": "SK-MEL-28 cells [2]; [5]", "value": "Up regulated at 48"}, {"measurement": "CTLA4 Regulation", "setting": "SK-MEL-28 cells [2]; [5]", "value": "Down Regulated"}, {"measurement": "DUSP4 Regulation", "setting": "SK-MEL-28 cells [2]; [5]", "value": "Down Regulated"}, {"measurement": "ENPP1 Regulation", "setting": "SK-MEL-28 cells [2]; [5]", "value": "Down Regulated"}, {"measurement": "FOXC2 Regulation", "setting": "SK-MEL-28 cells [2]; [5]", "value": "Down Regulated"}, {"measurement": "HMOX1 Regulation", "setting": "SK-MEL-28 cells [2]; [5]", "value": "Down Regulated"}, {"measurement": "ICAM1 Regulation", "setting": "SK-MEL-28 cells [2]; [5]", "value": "Down Regulated"}, {"measurement": "IL4R Regulation", "setting": "SK-MEL-28 cells [2]; [5]", "value": "Down Regulated"}, {"measurement": "IRS2 Regulation", "setting": "SK-MEL-28 cells [2]; [5]", "value": "Down Regulated"}, {"measurement": "NKX2-1 Regulation", "setting": "SK-MEL-28 cells [2]; [5]", "value": "Down Regulated"}, {"measurement": "NSF Regulation", "setting": "SK-MEL-28 cells [2]; [5]", "value": "Down Regulated"}, {"measurement": "PIK3CD Regulation", "setting": "SK-MEL-28 cells [2]; [5]", "value": "Down Regulated"}, {"measurement": "PPARG Regulation", "setting": "SK-MEL-28 cells [2]; [5]", "value": "Down Regulated"}, {"measurement": "PRKCB1 Regulation", "setting": "SK-MEL-28 cells [2]; [5]", "value": "Down Regulated"}, {"measurement": "SELL Regulation", "setting": "SK-MEL-28 cells [2]; [5]", "value": "Down Regulated"}, {"measurement": "STXBP1 Regulation", "setting": "SK-MEL-28 cells [2]; [5]", "value": "Down Regulated"}, {"measurement": "TNF Regulation", "setting": "SK-MEL-28 cells [2]; [5]", "value": "Up regulated at 48"}, {"measurement": "G6PD Regulation", "setting": "SK-MEL-28 cells [2]; [6]", "value": "Up regulated at 48"}, {"measurement": "IRS1 Regulation", "setting": "SK-MEL-28 cells [2]; [6]", "value": "Up regulated at 48"}, {"measurement": "SREBF1 Regulation", "setting": "SK-MEL-28 cells [2]; [6]", "value": "Up regulated at 48"}, {"measurement": "TGFB1 Regulation", "setting": "SK-MEL-28 cells [2]; [6]", "value": "Up regulated at 48"}, {"measurement": "VEGFA Regulation", "setting": "SK-MEL-28 cells [2]; SK-MEL-28, 100 μM Q10, at 58 hours then down regulated", "value": "Up regulated at 58"}, {"measurement": "TNFRSF1A Regulation", "setting": "SK-MEL-28 cells [2]; SK-MEL-28, 100 μM Q10, at 72 hours", "value": "Down Regulated"}, {"measurement": "MAPK14 mRNA", "setting": "SK-MEL-28 cells [2]; SKMEL-28, 100 μM Q10", "value": "significantly down-regulated"}, {"measurement": "expression of HNF4A", "setting": "SK-MEL-28 cells [2]; cells following Q10 treatment (cell type not stated)", "value": "upmodulated"}, {"measurement": "Forkhead box M1 (FOXM1) mRNA", "setting": "SK-MEL-28 cells [3]", "value": "down regulated"}, {"measurement": "NOX5 mRNA", "setting": "SK-MEL-28 cells [3]", "value": "levels do not change"}, {"measurement": "PREX1 mRNA", "setting": "SK-MEL-28 cells [3]", "value": "upregulated"}, {"measurement": "Neutrophil cytosolic factor 1 (NCF1) mRNA", "setting": "SK-MEL-28 cells [3]; 16 hour time point and onward", "value": "induced at very high levels after an initial lag phase"}, {"measurement": "NCF1 mRNA level change", "setting": "SK-MEL-28 cells [3]; SKMEL-28, 100 μM Q10, 16 hr", "value": "high"}, {"measurement": "protein levels of Bcl-xl, Bmf, BTK, BLK, cJun (pSer63), Connexin 32, PUMA bbc3, BID, Par4, cCbl", "setting": "SK-MEL-28 cells [4]", "value": "altered levels"}]}]}
